# Test results published in PubChem BioAssay AID588855 (National Center for Advancing Translational Sciences (NCATS), 2011).
# About 5,000 (1.2%) of roughly 410,000 compounds were called active. The shares of active, inactive and inconclusive entries below differ from those in the screen. Calls follow the shape of the dose curve; as a rule, active = well fitted inhibition curve with a large enough effect; inconclusive = small, poorly fitted or top-dose-only effect; inactive = no such curve, though single readings can be large or run the other way. Potencies beside an inconclusive call are fits to weak or partial responses and may not hold up.
# Assay: qHTS for Inhibitors of TGF-b; also: nearly all actives have a fitted effect of over 65% in size
# Settings: HepG2 CAGA-GFP TGF-b/SMAD3 reporter, GFP fluorescence, 18 h, TGF-beta stimulated, 500 pg/mL final; series mostly up to 46.1 µM
# Method in brief: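 Inhibition of TGF-beta-driven CAGA-GFP reporter expression in HEPG2 cells is measured by cellular GFP fluorescence after 18 h stimulation with 500 pg/mL recombinant TGF-beta in 1% FBS medium at 37 degrees C.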
# Potency is read from the fitted curve at half-maximal effect; tags tell the direction and shape of the fitted curve.
row,SMILES,Potency
1,CC(C)c1ccc(CN2CCC2(C)C(=O)Nc2cccc(Oc3ccccc3)c2)cc1 (stereo not given),inactive
2,O=C(c1cccs1)N1CCCc2cc(NS(=O)(=O)c3ccc(F)cc3F)ccc21,"inconclusive: 1.78 µM [inhibitor, full curve]"
3,Cc1cc(C)n(-c2nc3ccccc3nc2NCCc2ccccc2)n1,"inconclusive: 22.4 µM [inhibitor, single point]"
4,Nc1ccccc1S(=O)(=O)NCCCCc1ccccc1,"inconclusive: 35.5 µM [inhibitor, single point]"
5,Nc1ccc(S(=O)(=O)Nc2ccnn2-c2ccccc2)cc1,"inconclusive: 20 µM [inhibitor, single point]"
6,COc1cccc(C(=O)NC(=S)Nc2ccccc2N2CCCC2)c1,inactive
7,CCOC(=O)C1=C[C@@H](C(C)(C)C)N(S(=O)(=O)c2ccc(C)cc2)[C@H]1c1ccccc1,"inconclusive: 11.2 µM [inhibitor, single point]"
8,O=C(/C=C/c1ccco1)NC(=S)Nc1cccc(-c2nc3ccccc3s2)c1,inactive
9,CCCCNc1c2c(nc3c(-c4ccccc4)c(C)nn13)CCC2,inactive
10,O=S(=O)(c1ccc(F)c(F)c1)N1CCN(Cc2ccc3c(c2)OCO3)CC1,"inconclusive: 35.5 µM [inhibitor, single point]"
11,CCOc1cc(CNC(=O)Cn2c(-c3cccs3)cc3cc(F)ccc32)ccc1OC,"inconclusive: 3.16 µM [inhibitor, single point]"
12,O=C(c1ccccc1F)N(Cc1nc2ccccc2c(=O)[nH]1)C1CCCC1,"inconclusive: 35.5 µM [inhibitor, single point]"
13,Cc1ccc(-n2c(SCC(N)=O)nc3c(oc4ccccc43)c2=O)cc1C,"inconclusive: 6.31 µM [inhibitor, single point]"
14,CC(=O)c1c(C)n(-c2ccc(N(C)C)cc2)c2ccc(OCC(N)=O)cc12,"inconclusive: 11.2 µM [inhibitor, partial curve, poor fit]"
15,Cc1ccc2c(Cl)c(C)c(N3CCCCC3)nc2n1,inactive
16,O=C(O)CC(C(=O)O)n1nc(-c2ccccc2)cc1-c1ccccc1 (stereo not given),"inconclusive: 15.8 µM [inhibitor, single point]"
17,O=C(NC(Cc1ccccc1)C(=O)O)C1CCN(S(=O)(=O)c2ccccc2C(F)(F)F)CC1 (stereo not given),inactive
18,Cc1ccccc1CN1C(=O)c2ccccc2S1(=O)=O,inactive
19,Cc1cc[n+](C(C)C(=O)c2ccc(Cl)cc2)cc1 (stereo not given),inactive
20,Cc1cc2cc(C(c3nnnn3C3CCCC3)N(Cc3cccnc3)Cc3ccco3)c(=O)[nH]c2cc1C (stereo not given),"inconclusive: 7.08 µM [inhibitor, partial curve]"
